Measured values as given in paper PMC12434519 (ACS Medicinal Chemistry Letters, 2025).

Biological target: SARS-CoV-2 NSP14 (Severe acute respiratory syndrome coronavirus 2, UniProt P0DTD1)
Assay: biochemical
[1] = Hill slope of the concentration-response fit
[2] = maximum response, LUM % inhibition, read-out: SARS-CoV-2 NSP14 inhibition: Maximum response (%)
[3] = read-out: SARS-CoV-2 NSP14 inhibition: IC50
[4] = LUM % inhibition, read-out: SARS-CoV-2 NSP14 inhibition: IC50
[5] = LUM % inhibition, read-out: SARS-CoV-2 NSP14 inhibition: Maximum response
[6] = fit of concentration-response curve
[7] = TDI-015051 series, retrospective VS set, biochemical MTase assay, read-out: Merged IC50

Structure (SMILES)	SARS-CoV-2 NSP14 inhibition: Hill slope [1]	Emax [2] [%]	IC50 [3] [µM]	IC50 [4] [µM]	Emax [5] [%]	SARS-CoV-2 NSP14 inhibition: Hill slope [6]	IC50 [7] [µM]
O=C(CCc1c[nH]c2ccccc12)Nc1cccc(S(=O)(=O)N2CCCC2)c1 [RU-0833647]	56.4	-2.13	> 62.5				
COc1ccccc1CNC(=O)c1cc2n(n1)CCCN(Cc1cccc(C)c1)C2=O [RU-0833879]				27.3	59.4	1.2	
Cc1ccc(S(=O)(=O)Nc2ccccc2F)cc1C(=O)NCC(=O)Nc1cccc(C)c1C [RU-0833650]	0.751	2.65	> 62.5				
CN=S(=O)(c1cc(Cl)c2[nH]ncc2c1)c1cc(C(=O)NCc2c(F)ccc3c2N(C)C(=O)C3)n(C)c1C (stereo not shown) [TDI-016654, CN=S(=O)(c1cc(Cl)c2[nH]ncc2c1)c1cc(C(=O)NCc2c(F)ccc3c2N(C)C(=O)C3)n(C)c1C]							0.000651
O=C(NCc1nnc2ccccn12)Nc1ccnc2ccc(Oc3ccccc3)cc12 [RU-0833905]				> 125	41.5	0.577	
Cc1cc(CC(=O)NCC2CCC3(CN(C(=O)c4ccc5[nH]ncc5c4)C3)O2)ccc1F (stereo not shown) [RU-0834200]				13.6	31.7	0.949	
COc1ccc(CCNC(=O)c2ccc(Cl)c(S(=O)(=O)N3CCCCC3)c2)cc1 [RU-0833901]				> 125	18.3	16.9	
Cc1c(C(=O)NCc2cccc3cnn(C)c23)cn(S(=O)(=O)c2ccccc2)c1C [TDI-015499, Cc1c(C(=O)NCc2cccc3cnn(C)c23)cn(S(=O)(=O)c2ccccc2)c1C]							0.0392
Cc1c(S(=O)(=O)N2CCn3nccc3C2)cc(C(=O)NCc2cccnc2N2CCCC2)n1CCO [TDI-014469, Cc1c(S(=O)(=O)N2CCn3nccc3C2)cc(C(=O)NCc2cccnc2N2CCCC2)n1CCO]							0.0052
Cc1c(F)ccc(C(=O)NCc2cccc(CNC(=O)c3cc(C)c(=O)n(C)c3)c2)c1C [RU-0834103]				> 125	23.2	1.68	
Cc1ccn2ncc(C(=O)NCCC3CCC(NC(=O)c4cnc5[nH]ncc5c4)C3)c2c1 (stereo not shown) [RU-0834106]				50.8	55.6	0.958	
C=CCOc1ccccc1CNC(=O)c1cc(S(=O)(=O)N2CCn3nccc3C2)c(C)n1CC=C [TDI-014250, C=CCOc1ccccc1CNC(=O)c1cc(S(=O)(=O)N2CCn3nccc3C2)c(C)n1CC=C]							0.175
CC(NC(=O)c1cccc(S(=O)(=O)N(C)C2CCCCC2)c1)c1ccc(-n2cncn2)cc1 (stereo not shown) [RU-0833873]				> 125	14.9	34.9	
Cc1ccc(S(=O)(=O)N2CCCC2)cc1C(=O)N[C@H](C)c1ccc(Br)cc1 [RU-0833643]	16.9	3.54	> 62.5				
COc1ccc(NS(=O)(=O)c2ccc(OC)c(NS(=O)(=O)c3ccc(C)cc3)c2)cc1 [RU-0833933]				> 125	11.4	66.8	
Cc1c(F)cccc1C(=O)NC1CCC(CCNC(=O)c2ncn3ccccc23)C1 (stereo not shown) [RU-0834123]				> 125	9.59	56.9	
Cc1ccc2c(C(=O)NCC3CC(CNC(=O)c4ccn5cncc5c4)CO3)n[nH]c2c1 (stereo not shown) [RU-0834110]				24.8	67.1	2.31	
O=C(NCc1ccc(CNC(=O)C2CCc3ncnn3C2)cc1)c1cccc(F)c1Cl (stereo not shown) [RU-0834141]				> 125	13.1	70.5	
Cc1ccc(F)c(C(=O)NCCc2ccc(CNC(=O)c3cnc4[nH]ncc4c3)cc2)c1F [RU-0834096]				17.5	35.2	0.973	
Cc1cc2cc(C(=O)N[C@@H]3CCC[C@H](CNC(=O)c4nccn5ccnc45)C3)ccc2[nH]1 [RU-0834165]				> 125	12.1	210	
COc1ccc(CC(=O)Nc2cccc(S(=O)(=O)N(C)c3ccccc3)c2)cc1 [RU-0833640]	41.8	-2.97	> 62.5				
CN(C)S(=O)(=O)c1cccc(NC(=O)CCCn2c(=O)oc3ccccc32)c1 [RU-0833648]	11.8	0.276	> 62.5				
Cc1[nH]c(C(=O)NCc2c(F)ccc3occc23)cc1S(=O)(=O)c1ccc2c(cnn2C)c1 [TDI-015757, Cc1[nH]c(C(=O)NCc2c(F)ccc3occc23)cc1S(=O)(=O)c1ccc2c(cnn2C)c1]							0.0899
Cc1cccc(CNC(=O)c2cc3n(n2)CCCN(Cc2cccc(F)c2)C3=O)c1 [RU-0833877]				> 125	21.6	1.55	
Cc1cc(CC(=O)NC[C@H]2[C@@H](CNC(=O)c3cc(C)c(O)c(C)c3)C2(F)F)ccc1F [RU-0834164]				18.4	51.2	0.895	

Structure (SMILES)	SARS-CoV-2 NSP14 inhibition: Hill slope [1]	Emax [2] [%]	IC50 [3] [µM]	IC50 [4] [µM]	Emax [5] [%]	SARS-CoV-2 NSP14 inhibition: Hill slope [6]	IC50 [7] [µM]
O=C(NCc1cn2ccccc2n1)c1cccc(S(=O)(=O)NCc2ccccc2)c1 [RU-0833652]	18.9	2.13	> 62.5				
Cc1c(CO)cccc1C(=O)NC[C@H]1CC[C@@H](NC(=O)c2ccc3cnn(C)c3c2)C1 [RU-0834162]				> 125	26	61.9	
O=C(NCc1ccc(C(=O)NC2CCCn3cnnc32)cc1)c1ccc2nccn2c1 (stereo not shown) [RU-0834142]				> 125	9.71	10.6	
CN(Cc1ccccc1)S(=O)(=O)c1ccc(Cl)c(C(=O)NCc2nc3ccccc3n2C)c1 [RU-0833907]				> 125	13.8	62.9	
O=C(NCc1cccnc1N1CCCC1)c1ccc(Cl)c(S(=O)(=O)N2CCn3nccc3C2)c1 [TDI-014477, O=C(NCc1cccnc1N1CCCC1)c1ccc(Cl)c(S(=O)(=O)N2CCn3nccc3C2)c1]							0.063
Cc1c(S(=O)(=O)c2ccc3[nH]ncc3c2)cc(C(=O)NCc2c(F)ccc3ncn(C4CC4)c23)n1C [TDI-015974, Cc1c(S(=O)(=O)c2ccc3[nH]ncc3c2)cc(C(=O)NCc2c(F)ccc3ncn(C4CC4)c23)n1C]							6.15e-06
O=C(NCc1ccc(C(=O)NCCc2ccccc2O)nc1)c1ccc2[nH]ncc2c1 [RU-0834136]				15.4	57.7	1.01	
O=C(NCC1COC(CNC(=O)c2c(F)cc(O)cc2F)C1)c1ccn2nccc2c1 (stereo not shown) [RU-0834187]				> 125	12.6	15.3	
O=C(NC1CCC2(CCN(C(=O)c3ccn4cncc4c3)C2)C1)c1ncc2ccccn12 (stereo not shown) [RU-0834083]				> 125	11.2	93.7	
COc1ccnc(C(=O)NCC2CCCC3CN(C(=O)Cc4ccc(O)c(C)c4)CC23)c1C (stereo not shown) [RU-0834121]				> 125	17.4	7.03	
O=C(Cc1n[nH]c2ccccc12)Nc1cc(F)cc(NC(=O)Cc2n[nH]c3ccccc23)c1 [RU-0833638]	0.606	18.1	> 62.5				
CN(c1ccccc1)S(=O)(=O)c1cccc(NC(=O)CNC(=O)c2ccccc2Cl)c1 [RU-0833903]				> 125	10.7	70.3	
Cc1ccc(NS(=O)(=O)c2cc(C(=O)NCc3ccc4c(c3)OCCO4)ccc2C)cc1 [RU-0833931]				> 125	12.1	2.18	
Cc1ccn2c(C(=O)NCCC3CCC(NC(=O)c4cc5cn[nH]c5cn4)C3)cnc2c1 (stereo not shown) [RU-0834195]				> 125	21.9	0.503	
CC[C@H](CNC(=O)c1cncc2cccnc12)NC(=O)c1ccc2ccccc2n1 [RU-0833685]	1.91	2.85	> 62.5				
O=C(c1cccc(NCc2cccc(F)c2)c1)N1CCC(CO)CC1 [RU-0833937]				> 125	7.47	16.1	
O=C(N[C@@H]1CC[C@H](CNC(=O)c2cnc3ccccn23)C1)c1ccc(O)c(F)c1 [RU-0834157]				> 125	11.3	99.4	
Nc1ncnc2c1ncn2C1OC(CC(N)CCC(N)C(=O)O)C(O)C1O (stereo not shown) [RU-0425548]					101	0.841	
COc1cccc(NC(=O)COc2ccc(C(=O)NC(C)c3ccc(-n4ccnc4)cc3)cc2)c1 (stereo not shown) [RU-0833930]				> 125	8.07	14.2	
Cc1c(S(=O)(=O)N2CCc3n[nH]cc3C2)cc(C(=O)NCc2cccc3occc23)n1C [TDI-015608, Cc1c(S(=O)(=O)N2CCc3n[nH]cc3C2)cc(C(=O)NCc2cccc3occc23)n1C]							0.000481
COc1ccc(NS(=O)(=O)c2ccc(C)c(NS(=O)(=O)c3ccc(F)c(C)c3)c2)cc1 [RU-0833893]				> 125	8.58	37	
O=C(Cc1ccc(O)cc1Cl)N[C@]12C[C@H]1CN(C(=O)c1cc3ccccc3[nH]1)C2 [RU-0833681]	0.739	1.03	> 62.5				
O=C(NCCC1CN(C(=O)[C@H]2CCCC[C@H]2F)C1)c1c(F)cc(O)cc1F [RU-0833677]	0.24	2.48	> 62.5				
CC1CN(C(=O)c2ccc(CNC(=O)c3ncn4ccccc34)cn2)Cc2c[nH]nc21 (stereo not shown) [RU-0834115]				> 125	14.9	14.3	
C[C@H](NCc1nc(CNC(=O)c2ccccc2)no1)c1ccc(Cl)cc1Cl [RU-0833649]	17.4	4.68	> 62.5				

Read-outs that look alike come from different tables or passages of the source.
